PubChem BioAssay AID1347073 (National Center for Advancing Translational Sciences (NCATS), 2019)
Hit rate of the full screen: of about 45,000 compounds, about 200 (0.44%) were called active. About 7% were inconclusive and are not listed. Calls follow the shape of the dose curve; as a rule, active = well fitted activation curve with a large enough effect; inconclusive = small, poorly fitted or top-dose-only effect; inactive = no such curve, though single readings can be large or run the other way. The list shows a part of the results.

Test: qHTS of TDP-43 Inhibitors: NCGC Sytravon Library Screen; also: 0% is about no effect; nearly all actives have a fitted effect of over 55% in size
Conditions: yeast TDP-43 toxicity rescue, BacTiter-Glo growth, 24 h; series mostly up to 46.1 µM; growth rescue (activation): at the top concentration
Procedure, shortened: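 TDP-43-expressing yeast, pregrown in raffinose, seeded at OD600 0.02 in galactose medium with compound for 24 hr at 30 deg C. Growth read by BacTiter-Glo luminescence, so rescue of toxicity appears as activation.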

Compound	growth rescue (activation)
NC(=O)c1ccc[n+](CC(=O)Nc2ccccc2C(=O)O)c1	inactive: -6.69%
CS(=O)(=O)N(CC(=O)Nc1ccccc1-c1ccccc1)c1ccccc1	inactive: -1.2%
O=C(N/N=C/c1ccccc1OCc1ccccc1Cl)c1cccnc1	inactive: 15.4%
Cc1ccc(NC(=O)CNCc2ccccn2)cc1S(=O)(=O)N(C)C	inactive: 3.18%
CCCc1cc(=O)[nH]c(SCC(=O)Nc2ccc(S(=O)(=O)N3CCCC3)cc2)n1	inactive: 5.11%
O=C1OCC/C1=C\c1ccccc1	inactive: 8.57%
COCCNC(=O)/C(C#N)=C/c1c(N2CCN(c3ccccc3)CC2)nc2c(C)cccn2c1=O	inactive: -7.85%
Cc1cccc(NC(=O)CSc2nc(C)c(Cc3ccccc3)c(=O)[nH]2)c1	inactive: -16.1%
COc1ccc(-c2nc(CNS(=O)(=O)c3ccc(F)cc3)cs2)cc1	inactive: 9.75%
CCCCCCCc1nc2sc3c(c2c(=O)n1N)CC(C)(C)OC3	inactive: -0.436%
O=c1nc2c(-c3cccc(Br)c3)n[nH]n2c2ccccc12	inactive: -18.9%
Cc1nnc(SCC(=O)Nc2cccc(S(=O)(=O)NC3=NCCCCC3)c2)n1Cc1ccccc1	inactive: -6.9%
Cn1c(=O)[nH]c(=O)c2c1nc1n2CC(O)CN1c1ccccc1 (centres undefined)	inactive: 8.93%
Cc1onc(-c2ccccc2)c1C(=O)N1CCC(C)(C(=O)O)C1 (centres undefined)	inactive: -1.92%
COc1ccc(NC(=O)Cn2cc(C(=O)C3CC3)c3ccccc32)cc1	inactive: 7.31%
COc1ccc(C(C[N+](=O)[O-])c2c(C)[nH]n(-c3ccccc3)c2=O)cc1 (centres undefined)	inactive: 19.5%
COc1cccc(NC(=O)CN(C)CC(=O)Nc2cccc(C(F)(F)F)c2)c1	inactive: 16.9%
COc1ccc(/C=C(\NC(=O)c2ccco2)C(=O)N2CCOCC2)cc1	inactive: -26.5%
COc1ccc(CN(CC(=O)NC2CCCCC2)C(=O)CCC(=O)Nc2nccs2)cc1	inactive: 0.645%
COC(=O)Oc1cncc(C(=O)O)c1	inactive: 9.57%
CCOC(=O)Cc1csc(NC(=O)c2cc(C)cc(C)c2)n1	inactive: -2.53%
Cc1ccc(NC(=S)c2ccc(N(C)C)cc2)cc1	inactive: 13.1%
O=C1CSC(c2cn(-c3ccccc3)nc2-c2cc3ccccc3o2)N1Cc1ccccc1 (centres undefined)	inactive: 12.9%

Compound	growth rescue (activation)
COc1ccc(Nc2c([N+](=O)[O-])ccc3c2=NC2(CCCCC2)N=3)cc1	inactive: 21.9%
CCC1C(c2ccccc2)N(C)C(c2ccccc2)CC1(O)c1ccccc1 (centres undefined)	inactive: 0.909%
N#C/C(=C/c1ccc(CNC(=O)C(=O)Nc2cc(Cl)cc(Cl)c2)o1)C(=O)NCc1cccnc1	inactive: -6.48%
CC(C)NC(=O)COc1ccccc1C#N	inactive: -6.17%
COc1ccc(NC(=O)CCn2ccnc2)c(OC)c1	inactive: -12.3%
CC1CC(C)CN(S(=O)(=O)c2ccc(C(=O)NNC(=O)c3ccccc3F)cc2)C1 (centres undefined)	inactive: -2.42%
Cn1cnnc1SCC(=O)NN(c1ccccc1)c1ccccc1	inactive: 7.64%
CCCCCn1c(=NC(=O)c2cccnc2)c(C#N)cc2c(=O)n3cccc(C)c3nc21	inactive: -9.04%
CCCCNC(=O)c1cc(C)nn1-c1ccccc1	inactive: 2.03%
COc1ccc(C2C(C#N)=C(N)Nc3nc4ccccc4n32)cc1 (centres undefined)	inactive: 4.07%
O=C(COC(=O)c1ccco1)c1ccccc1	inactive: -3.4%
NNC(=O)COc1ncn(-c2ccccc2)n1	inactive: 14.2%
COc1cc(/C=C/C(=O)Nc2ccc(OC)c(S(=O)(=O)N3CCOCC3)c2)ccc1OCC#N	inactive: -28.5%
N=C1c2ccccc2CN1NC(=O)c1cccc(S(=O)(=O)N2CCCCC2)c1	inactive: -11.8%
O=C(NCCc1nc2ccccc2[nH]1)/C(=C/c1ccco1)NC(=O)c1ccccc1Br	inactive: 12.8%
Cc1ccc(-n2c(C)cc(=O)cc2C)cc1[N+](=O)[O-]	inactive: 3.08%
Cc1ccc(OCC(=O)Nc2cnn(CCCC(=O)O)c2)c([N+](=O)[O-])c1	inactive: 0.0254%
CC(C)C(NS(=O)(=O)c1ccccc1F)C(=O)N1CCc2ccccc2C1 (centres undefined)	inactive: 14.5%
CC1CN(C(=O)/C=C/c2ccccc2[N+](=O)[O-])CC(C)O1 (centres undefined)	inactive: -2.95%
Cc1ccc(C(=O)OCC(=O)N2CCOCC2)cc1	inactive: 2.22%
Cc1nonc1NC(=O)CSc1nnc(N)s1	inactive: -0.184%
Cc1nc2ccc([N+](=O)[O-])cc2[nH]1	inactive: -0.0041%
COc1ccc(OCC(=O)NC(=S)Nc2ccc3c4c(cccc24)CC3)cc1	inactive: 4.88%

Compound	growth rescue (activation)
COc1ccc(N(CC(=O)NCC2CCCO2)C(=O)CCC(=O)Nc2cc(C)on2)cc1OC (centres undefined)	inactive: -0.366%
Cc1ccc(NC(=O)CC2Nc3cccc4cccc(c34)NC2=O)cc1 (centres undefined)	inactive: -1.74%
COc1cccc(CNc2ccccn2)c1O	inactive: 2.94%
O=C(COc1ccccc1[N+](=O)[O-])NCC1(N2CCOCC2)CCCCC1	inactive: 22.4%
NS(=O)(=O)c1cccc(NC(=O)CSc2nn(-c3ccccc3)c(=S)s2)c1	inactive: 22.5%
CCN(CC)c1ccc(/C=N/NC(=O)c2nnn(-c3nonc3N)c2C(C)C)c(O)c1	inactive: -23.5%
CSc1nc2c(c(-c3ccc(O)cc3)c1C#N)CCC2	inactive: -1.65%
Cn1c(-c2ccccc2)c(C(=O)CC#N)c2ccccc21	inactive: 18.1%
COc1ccc(CNC(=O)c2coc(=O)c3ccccc23)cc1	inactive: 26.9%
O=C(c1cnn2c(C(F)F)cc(-c3ccccc3)nc12)N1CCc2ccccc21	inactive: -0.146%
COc1ccc(C(=O)N2CCN(c3cnn(-c4ccccc4)c(=O)c3Cl)CC2)cc1	inactive: 14.4%
Cc1ccc2nc(SCC(=O)Nc3cc(C)on3)c(C)cc2c1	inactive: 9.05%
Nc1ncnc(Nc2cc(Cl)cc(Cl)c2)c1[N+](=O)[O-]	inactive: 9.93%
CCc1nc2c(OCc3ccc(S(C)(=O)=O)cc3)cccn2c1N(C)C(=O)c1ccccc1F	inactive: -14.7%
CCCCn1c(=O)[nH]c(=O)c2c1nc(-c1cc(Cl)c(OC)c(OC)c1)n2C	inactive: 12.3%
COc1ccccc1CN(C)C(=O)C(NC(=O)Cc1cccc2ccccc12)C(C)C (centres undefined)	inactive: 31.9%
CC(=O)c1ccc(NC(=O)CSc2n[nH]c(-c3cccnc3)n2)cc1	inactive: -6.08%
CCN(CC)C(CNC(=O)c1cc(=O)[nH]c2ccccc12)c1ccccc1Cl (centres undefined)	inactive: 1.01%
COc1ccc(NC(=O)Cc2c(SC)c3ccccc3n2Cc2ccccc2)cc1	inactive: 9.61%
Cc1cc(NS(=O)(=O)c2ccc(NC(=O)C3CCCCC3)cc2)no1	inactive: -1.47%
O=C(NCc1ccccc1)c1cccc(S(=O)(=O)N2CCCCC2)c1	inactive: 13.5%
CCCCC(=O)Nc1nnc(SCC(=O)NC2CC2)s1	inactive: -9.26%
CC(C)CN(C(=O)c1cc2ccccc2o1)c1c(N)n(CC(C)C)c(=O)[nH]c1=O	inactive: 11.3%
